Here are results for 43 molecules from PMC4336329 (PLoS ONE, 2015).

Screen size: about 310,000 compounds; about 2,200 (0.71%) showed an effect of 50% or more. The effect is printed as a negative number. The list shows a part of the results.

human ether-à-go-go-related gene (hERG) potassium channel, sequence (Q12809 whole entry, looked up): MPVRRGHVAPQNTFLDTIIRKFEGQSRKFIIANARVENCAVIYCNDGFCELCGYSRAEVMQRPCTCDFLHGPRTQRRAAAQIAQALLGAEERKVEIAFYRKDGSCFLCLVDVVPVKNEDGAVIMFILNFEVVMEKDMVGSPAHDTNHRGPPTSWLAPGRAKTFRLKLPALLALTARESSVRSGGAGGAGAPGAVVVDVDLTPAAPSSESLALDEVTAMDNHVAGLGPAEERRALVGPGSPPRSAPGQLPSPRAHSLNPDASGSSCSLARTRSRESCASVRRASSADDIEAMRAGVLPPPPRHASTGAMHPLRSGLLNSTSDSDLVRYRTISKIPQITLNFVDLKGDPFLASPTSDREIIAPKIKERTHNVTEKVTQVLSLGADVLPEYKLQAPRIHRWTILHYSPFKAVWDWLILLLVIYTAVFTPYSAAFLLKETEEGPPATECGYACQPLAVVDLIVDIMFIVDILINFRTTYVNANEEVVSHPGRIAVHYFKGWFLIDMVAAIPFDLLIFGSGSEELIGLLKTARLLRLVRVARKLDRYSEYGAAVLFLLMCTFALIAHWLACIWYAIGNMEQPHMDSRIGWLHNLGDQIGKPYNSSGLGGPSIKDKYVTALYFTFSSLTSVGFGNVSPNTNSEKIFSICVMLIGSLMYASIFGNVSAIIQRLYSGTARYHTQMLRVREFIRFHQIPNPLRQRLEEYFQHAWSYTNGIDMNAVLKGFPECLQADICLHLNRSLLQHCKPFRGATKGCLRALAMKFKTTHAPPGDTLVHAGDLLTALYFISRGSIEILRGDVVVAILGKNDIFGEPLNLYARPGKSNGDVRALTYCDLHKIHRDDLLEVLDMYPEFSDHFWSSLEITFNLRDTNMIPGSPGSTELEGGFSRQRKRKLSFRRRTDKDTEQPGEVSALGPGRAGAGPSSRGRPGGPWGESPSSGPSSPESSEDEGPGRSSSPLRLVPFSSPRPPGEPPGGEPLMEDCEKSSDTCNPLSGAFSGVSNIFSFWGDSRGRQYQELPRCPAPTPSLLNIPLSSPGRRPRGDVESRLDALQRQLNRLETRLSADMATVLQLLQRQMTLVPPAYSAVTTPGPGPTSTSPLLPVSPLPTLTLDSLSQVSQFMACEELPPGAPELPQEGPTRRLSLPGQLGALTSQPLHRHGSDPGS

This assay addresses human ether-à-go-go-related gene (hERG) potassium channel (human, UniProt Q12809). The assay can be described thus: primary screen, population patch clamp on CHO cells stably expressing hERG. The procedure: Briefly, Chinese hamster ovary (CHO) cells stably expressing the hERG channel were dislodged from tissue culture flasks and dispensed into PPC plates. […] During the recording, background leak currents were estimated by a 100 ms step to -80 mV from an initial holding potential of -70 mV and subtracted from the subsequent current measurement. The campaign was conducted in two phases using slight differences in recording protocol. In the first phase, the initial voltage pulse used a 100 ms step to -30 mV from a holding potential of -70 mV, a 2 s conditioning step to +25 mV, and a 2 s test step to -30 mV. During the second phase of the screen, the potential during the conditioning step was raised to +45 mV. In both phases of the campaign, a secondary voltage pulse was applied using the same parameters as the second phase initial pulse. The initial and secondary pulses were applied in the absence of compound, and upon application of 1 μM and 10 μM test concentrations. Small molecule effects on hERG current density were quantified by […].
For `O=C(NC(=O)c1ccccc1F)OCc1ccc(Cl)cc1Cl`, the “hERG current change (%, negative = inhibition) at 1uM” value worked out at 3.26%.

Regarding `O=[N+]([O-])c1cc([N+](=O)[O-])c(Oc2c(Cl)cccc2Cl)cc1NN1CCCCC1`, the “hERG current change (%, negative = inhibition) at 1uM” value is reported as 14%. For `CCC(=O)N1C(C(=O)O)CSC1c1ccc(OC)cc1` (stereo not shown) the value was 4.09%; for `CCOc1ccc(Cn2c(=O)oc3ccccc32)cc1`, 16.4%. Under `O=C(/C=C/c1ccc([N+](=O)[O-])cc1)NCCSCc1ccco1` stands -14.9%; under `Cc1ccccc1OCC(=O)NCC(=O)OCc1ccc(Br)cc1`, 13.1%; under `S=C(c1ccccc1)N1CCN(C(=S)c2ccccc2)CC1`, 9.72%.

For the molecule `c1ccc(-c2ccc(C3=Nn4c(nnc4-c4cc(-c5ccccc5)n[nH]4)SC3)cc2)cc1`, the “hERG current change (%, negative = inhibition) at 1uM” value is -2.16%.

`CC(C)(C)C(=O)NC(=S)NNC(=O)c1ccc(-c2ccccc2)cc1`: the “hERG current change (%, negative = inhibition) at 1uM” value is 9.14%. For `O=C(Cc1ccc(Cl)c(Cl)c1)Nc1ccccc1N1CCCC1` the value was 15.2%; for `O=C(/C=C/c1cccc([N+](=O)[O-])c1)NCCN1C(=O)S/C(=C\c2ccc(F)cc2)C1=O`, 13.2%; for `O=C(COc1ccc(Cl)cc1)Nc1ccc2oc(-c3ccncc3)nc2c1`, 10.8%. Under `COc1ccc(CC(=O)NCCC(C)C)cc1S(=O)(=O)N1CCOCC1` stands 7.35%; under `CCCNC(=O)c1onc(CSc2cccc(OC)c2)c1C(=O)NCCC`, 6.5%; under `COc1ccc(S(=O)(=O)NCCSc2ccc(Cl)cc2)cc1OC`, 1.24%.

For `CCN(Cc1ccccc1)C(=O)c1cccnc1`, the “hERG current change (%, negative = inhibition) at 1uM” value is reported as 12.6%. For `COc1ccc(NC(=O)CC(C)c2ccccc2)cc1S(=O)(=O)N1CCOCC1` (stereo not shown) the value was 9.03%; for `CC(=O)NC1C(=O)N(CCN2CCOCC2)c2ccc(F)cc21.Cl` (stereo not shown), 11.2%. Under `C=CCN(CC=C)S(=O)(=O)c1ccc(NC(=O)COc2ccccc2OC)cc1` stands -1.1%. Under `CC1(c2cccc(Br)c2)NC(=O)NC1=O` (stereo not shown) stands 14.3%; under `CCn1ncc(C(=O)Nc2ccc(S(=O)(=O)N3CCCC3)cc2)c1C`, 10.4%; under `O=C(NNC(=S)NC(=O)c1cccc([N+](=O)[O-])c1)c1ccc(Br)cc1`, 11.1%. In the case of `O=C(NCCCN1CCOCC1)C(=O)N/N=C/c1ccccc1O`, the “hERG current change (%, negative = inhibition) at 1uM” value is 10.6%. Consider `COc1ccc(CCN(C)CCC(=O)Nc2c(C)cc(C)cc2C)cc1OC`, for which the “hERG current change (%, negative = inhibition) at 1uM” value is reported as -25.7%. For `CCn1c(N2CCC(Cc3ccccc3)CC2)nc2c1c(=O)[nH]c(=O)n2C` the value was 8.52%; for `CCCN(CCC)CCN1C(=O)C2C(C(=O)Nc3cccc(SC)c3)C3C=CC2(O3)C1C(=O)NC1CCCCC1` (stereo not shown), -13.7%; for `CCOC(=O)c1ccc(CN2C(=O)c3ccccc3S2(=O)=O)cc1`, 10.5%. For the molecule `COc1ccc(-n2c(SCC(=O)Nc3ccc(C(=O)O)cc3)nnc2-c2ccccc2)cc1OC`, the “hERG current change (%, negative = inhibition) at 1uM” value is on record as 4.91%. For `CN1CCN(S(=O)(=O)c2ccc(Br)s2)CC1` the value was -4.57%. Under `COc1ccc2cc(C(=O)N3CCN(C)CC3)[nH]c2c1` stands 9.25%. Under `COc1ccc(CNC(C)(C)C)cc1Cl.Cl` stands -1.46%; under `O=S(=O)(Cc1ccccc1)N1CCCC(c2nc(-c3ccc(F)cc3)no2)C1` (stereo not shown), 7.37%; under `COc1ccc(OC)c(C2CC(=O)N3CN(c4cccc(Cl)c4)CSC3=C2C#N)c1` (stereo not shown), 17.9%. As for `CC(c1ccccc1F)n1cc(C(=O)NCCCn2ccnc2)nn1` (stereo not shown), the “hERG current change (%, negative = inhibition) at 1uM” value amounted to 12.9%. For `O=C(O)c1ccccc1N/C=C\[N+](=O)[O-]` the value was 20%; for `O=C(NCCc1ccccc1)C1CCN(c2nc3ccccc3o2)CC1`, -6.95%; for `CC(=O)Nc1ccc(SC[C@H](c2ccccc2)N2CCN(CCc3ccccc3)CCC2=O)cc1`, -56%.

Consider `O=C1CCC(=O)N1OCCOc1ccccc1`, for which the “hERG current change (%, negative = inhibition) at 1uM” value is on record as 1.37%.

Regarding `Cc1ccc(C(=O)C(=S)N2CCOCC2)cc1`, the “hERG current change (%, negative = inhibition) at 1uM” value is listed as 2.55%. Under `O=C(NCCO)c1ccc(-c2nnc(N3CCOCC3)c3ccccc23)cc1` stands 7.33%; under `Cc1ccc(S[C@@H](CCN2CC[C@H](NC(=O)OCc3ccccc3)CCC2=O)c2ccccc2)cc1`, -2.91%; under `CCn1cc(C(=O)N[C@@H](CCSC)C(=O)NCCCn2ccnc2)c(=O)c2cc3c(cc21)OCO3`, 16.1%. Regarding `Cc1ccc(S(C)(=O)=N/C=C2\C(=O)c3sccc3N(C)S2(=O)=O)cc1` (stereo not shown), the “hERG current change (%, negative = inhibition) at 1uM” value is reported as 5.76%.
